Among all 310,000 compounds or so, about 2,200 (0.71%) showed an effect of 50% or more. The effect is printed as a negative number. The list shows a part of the results.
The compounds below were run against human ether-à-go-go-related gene (hERG) potassium channel (human, UniProt Q12809) (assay: primary screen, population patch clamp on CHO cells stably expressing hERG).
Sequence of human ether-à-go-go-related gene (hERG) potassium channel (Q12809 whole entry, looked up): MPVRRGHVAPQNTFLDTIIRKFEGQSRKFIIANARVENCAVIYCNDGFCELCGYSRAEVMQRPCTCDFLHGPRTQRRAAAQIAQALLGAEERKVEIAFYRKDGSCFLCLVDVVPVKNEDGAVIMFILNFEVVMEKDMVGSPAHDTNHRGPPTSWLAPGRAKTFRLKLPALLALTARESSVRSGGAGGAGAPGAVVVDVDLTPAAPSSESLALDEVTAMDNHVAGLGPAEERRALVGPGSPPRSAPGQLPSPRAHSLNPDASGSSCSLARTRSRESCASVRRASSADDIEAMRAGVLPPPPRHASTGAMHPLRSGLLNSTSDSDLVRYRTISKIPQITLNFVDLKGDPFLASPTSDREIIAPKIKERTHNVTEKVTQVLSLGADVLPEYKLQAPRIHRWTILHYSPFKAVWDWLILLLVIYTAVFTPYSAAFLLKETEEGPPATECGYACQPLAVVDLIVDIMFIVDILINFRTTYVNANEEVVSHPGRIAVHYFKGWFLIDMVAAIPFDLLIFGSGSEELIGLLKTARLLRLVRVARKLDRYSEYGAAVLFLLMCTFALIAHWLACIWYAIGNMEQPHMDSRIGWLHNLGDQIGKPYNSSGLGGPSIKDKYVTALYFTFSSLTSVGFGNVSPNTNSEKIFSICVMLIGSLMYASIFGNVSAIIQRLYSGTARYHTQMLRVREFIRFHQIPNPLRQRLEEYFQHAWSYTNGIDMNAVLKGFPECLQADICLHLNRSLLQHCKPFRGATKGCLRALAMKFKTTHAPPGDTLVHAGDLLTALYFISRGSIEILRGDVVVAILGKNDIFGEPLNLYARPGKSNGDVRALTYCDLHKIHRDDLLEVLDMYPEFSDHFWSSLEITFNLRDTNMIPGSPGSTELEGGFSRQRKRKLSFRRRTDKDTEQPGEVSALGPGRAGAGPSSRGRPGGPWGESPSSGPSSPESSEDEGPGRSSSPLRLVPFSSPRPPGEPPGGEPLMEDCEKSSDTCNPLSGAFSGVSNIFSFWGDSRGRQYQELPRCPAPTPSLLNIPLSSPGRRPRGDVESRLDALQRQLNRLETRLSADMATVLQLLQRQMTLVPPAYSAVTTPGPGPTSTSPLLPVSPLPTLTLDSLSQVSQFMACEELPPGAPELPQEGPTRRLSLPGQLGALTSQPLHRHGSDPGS

| Compound | hERG current change (%, negative = inhibition) at 1uM |
| --- | --- |
| Fc1cccc(CNc2ncnc3ccc(-c4ccc5c(c4)OCO5)cc23)c1 | 5.14% |
| CC(=O)c1cccc(NC(=S)N2CCN(c3ccccn3)CC2)c1 | 7.51% |
| Cc1cccc(-c2noc(CCCC(=O)NCC3CCCO3)n2)c1 (stereo not drawn) | 12.4% |
| COc1ccc(OC(=O)c2ccc(Cl)cc2)c(C(C)=O)c1 | 11.6% |
| N=C1C(c2ccccc2)=C(O)CN1c1cccc(S(=O)(=O)NCc2ccco2)c1 | 2.3% |
| CCOC(=O)c1c(CNCCN(CC)CC)n(C)c2cc(Br)c(OC)cc12.Cl | -49.8% |
| CC(=O)Nc1ccc(S(=O)(=O)NCCc2ccc(F)cc2)cc1 | 11% |
| COc1ccccc1CNCC(=O)NCc1ccc(C)cc1.O=C(O)C(=O)O | -4.25% |
| COc1ccc(/C=C2\C(=O)ON=C2c2ccccc2)cc1 | 12.7% |
| Cc1c(C(=O)N2CCOCC2)c(S(=O)(=O)Nc2ccccc2)c(C)n1C | 10.3% |
| O=C1CCCC(=O)C1=Cc1c[nH]c2ccccc12 | 9.37% |
| COc1ccc(/C=N/NC(=S)Nc2ccccc2)cc1COc1ccc(Br)cc1 | 6.21% |
| O=C(c1ccc(S(=O)(=O)Nc2ccccc2Cl)cc1)N1CCOCC1 | 7.94% |
| Cc1cc(NC(=O)COc2cccc(C)c2C)no1 | 7.71% |
| Cc1ccc2c(c1)sc[n+]2Cc1ccccc1.[Br-] | 12.8% |
| COc1ccc(C(=O)N(C(C)C)C(C)C)c(OC)c1 | 13.5% |
| COc1ccc(NC(=O)CN(C)S(=O)(=O)c2ccc3c(c2)CC(C)N3C(C)=O)cc1OC (stereo not drawn) | 12.4% |
| CC(C)(C)C1C=C(Sc2ccccc2)C(=O)O1 (stereo not drawn) | 3.53% |
| CCN(CCCNC(=O)C1CCC(=O)N1Cc1ccc(F)cc1)c1cccc(C)c1 (stereo not drawn) | 5.54% |

| Compound | hERG current change (%, negative = inhibition) at 1uM |
| --- | --- |
| CCOc1ccccc1OCCN1CCC(Cc2ccccc2)CC1.O=C(O)C(=O)O | -53.7% |
| CN(Cc1nc(-c2ccncc2)no1)S(=O)(=O)c1ccc(Cl)cc1 | -17.6% |
| Cc1cccc(C(=O)Nc2cccc(C(=O)N/N=C/c3ccc4c(c3)OCO4)c2)c1 | 4.34% |
| NC(=O)C1CCN(c2ccc(C(F)(F)F)cc2[N+](=O)[O-])CC1 | -5.02% |
| O=C(Nc1cccc(C(F)(F)F)c1)C(SCCO)c1ccccc1 (stereo not drawn) | 0.0794% |
| CN(C)C(=O)NC(NC(=S)Nc1ccccc1)C(Cl)(Cl)Cl (stereo not drawn) | 11.9% |
| CCOC(=O)N1CCN(C(=O)C2CCN(C(=O)c3cc(OC)cc(OC)c3)CC2)CC1 | 5.7% |
| O=C(Nc1ccc(Cl)cc1F)C1CC1 | 9.74% |
| CC(=O)NC1(C2CCCCC2=O)CCCCC1 (stereo not drawn) | 14.1% |
| CS(=O)(=O)N(Cc1ccc(C(=O)NC2CCCCC2O)cc1)c1ccccc1 (stereo not drawn) | -3.16% |
| Cc1c(C=O)c2ccccc2n1CCOc1ccccc1 | 14.1% |
| CCN(CCCNC(=O)C1c2ccccc2C(=O)N(CCOC)C1c1ccc(F)cc1)Cc1ccccc1 (stereo not drawn) | -9.37% |
| Cc1cc(Br)ccc1OCC(=O)NC1CCCC1 | 11.4% |
| O=C(CSc1nnnn1-c1ccc(O)cc1)Nc1ccc(N2CCOCC2)c(Cl)c1 | 1.14% |
| C[C@H](NC(=O)CCn1nnc2ccccc2c1=O)C(=O)O | 8.19% |
| Cc1cc2nc3n(c2cc1C)CC1CC(C(=O)NCc2ccco2)N(C)C31 (stereo not drawn) | -1.1% |
| Cn1c(=O)c2c(ncn2CC(=O)OCC(=O)c2ccc(F)c(F)c2)n(C)c1=O | -3.49% |
| CCN(CC)S(=O)(=O)c1ccc(C(=O)Nc2ccc3c(c2)OCCO3)cc1 | -1.02% |
| O=C(NCC1CCCO1)C(c1cccs1)N(C(=O)c1ccc(CN2CCOCC2)o1)c1ccc(Cl)cc1 (stereo not drawn) | 13.7% |

| Compound | hERG current change (%, negative = inhibition) at 1uM |
| --- | --- |
| CC(Sc1ncn[nH]1)C(=O)c1c(N)n(C)c(=O)n(C)c1=O (stereo not drawn) | 15.5% |
| O=C(Cc1ccc(F)cc1)N1CCN=C1SCc1ccc([N+](=O)[O-])cc1 | 8.17% |
| COc1ccc(Cl)cc1NC(=O)CCS(=O)(=O)c1ccc(C)cc1 | 13.6% |
| CCN(CC)CCCN1C(=O)C(O)=C(C(=O)c2ccc(C)o2)C1c1ccc(C)o1 (stereo not drawn) | 17.4% |
| CCCn1c(=O)c(C(=O)Nc2cccc(C)n2)c(O)c2ccccc21 | 15.7% |
| COc1ccc2c(CC(=O)OCC(=O)Nc3ccc(S(N)(=O)=O)cc3)coc2c1 | 11.3% |
| CCOc1ccc(OCCCC(=O)NCCc2ccc(OC)cc2)cc1 | 21.8% |
| CS(=O)(=O)NCCSc1nnnn1-c1ccccc1 | 14.3% |
| CCOC(=O)c1nn(-c2ccc(F)cc2)c(=O)cc1OCC(=O)Nc1ccc(F)c(F)c1 | 16.9% |
| Cc1ccc(C)c(NC(=O)CSc2nnc(C)c(=O)n2N)c1 | 11.4% |
| CN1CCN(C(=O)c2cccc(S(=O)(=O)N3CCCC3)c2)CC1.Cl | 24.1% |
| Cc1ccc(-c2nn(CC(=O)NCc3ccccn3)c(=O)c3ccccc23)cc1S(=O)(=O)N(C)C | -11.5% |
| O=C(COC(=O)/C=C/c1cccc(F)c1)Nc1ccccc1 | 5.97% |
| Nc1ccc(NC(=O)c2ccc(C(=O)Nc3ccc(N)cc3)cc2)cc1 | 9.92% |
| CC(CCc1ccco1)NC(=O)Cn1ncc2c1-c1ccccc1OC2 (stereo not drawn) | 5.18% |
| CN(Cc1cccs1)c1nc(-c2cccnc2)nc2ccccc12 | -4.54% |
| COc1ccc(S(=O)(=O)N(C)Cc2cccs2)cc1Br | 10.4% |
| CC(=O)N1N=C(c2ccncc2)OC12CCCC2 | 14.4% |
| Cc1nc(N2CCN(C(=O)c3ccco3)CC2)c2c3c(sc2n1)CC(C)CC3 (stereo not drawn) | 10.1% |
